Laboratory results taken from PMC2666743.
Changes are numbered by the printed parent chain. No constants are given. Whether binding was seen depends on the method and setting. For some assays here: In cells and extracts the contact can be indirect. Some results given as binding are weak or reduced against the parent protein; the word gives no strength. Where a sequence is shown, tags or fusion partners need not be part of it.

By UniProt entry, the sequences of proteins in these tests, tags left out.
UniProt P60953: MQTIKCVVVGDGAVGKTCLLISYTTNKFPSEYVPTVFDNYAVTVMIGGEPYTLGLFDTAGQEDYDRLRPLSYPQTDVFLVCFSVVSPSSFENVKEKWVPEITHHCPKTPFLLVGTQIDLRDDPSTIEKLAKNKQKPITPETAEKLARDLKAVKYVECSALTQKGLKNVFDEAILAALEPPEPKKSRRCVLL

Assays:
[1] = target: T1, GST-CPD C (C-terminal aa 111–343 of Cupidin) (mouse) (UniProt Q9QWW1); assay: condition: only in the presence of [35S]-GDPβS instead of [35S]-GTPγS; far-Western, overlay or dot blot; as the Cdc42 ligand overlay, but in the presence of [35S]-GDPβS and Cdc42; both purified
T1 sequence: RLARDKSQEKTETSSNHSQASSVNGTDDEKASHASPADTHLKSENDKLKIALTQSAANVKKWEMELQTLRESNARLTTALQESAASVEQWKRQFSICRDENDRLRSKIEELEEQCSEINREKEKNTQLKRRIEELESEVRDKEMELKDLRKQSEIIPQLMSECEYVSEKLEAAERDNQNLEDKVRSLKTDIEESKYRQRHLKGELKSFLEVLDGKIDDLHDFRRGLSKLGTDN

[2] = target: T2, GST-CPD N (N-terminal aa 1–110 of Cupidin) (mouse) (UniProt Q9QWW1); assay: far-Western, overlay or dot blot; 1 μg of GST-fused Cupidin constructs separated by 10% SDS-PAGE, blotted onto nitrocellulose, re-natured, probed with GST-Cdc42 loaded with [35S]-GTPγS; radioactivity read with a BAS2000 analyzer; both purified
T2 sequence: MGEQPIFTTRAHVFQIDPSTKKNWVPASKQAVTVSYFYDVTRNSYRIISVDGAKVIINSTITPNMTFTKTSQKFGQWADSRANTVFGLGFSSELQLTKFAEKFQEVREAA

[3] = target: T3, GST-CPDΔ231–283 (Cupidin with a deletion of aa 231–283) (mouse) (UniProt Q9QWW1); assay: as above
T3 sequence: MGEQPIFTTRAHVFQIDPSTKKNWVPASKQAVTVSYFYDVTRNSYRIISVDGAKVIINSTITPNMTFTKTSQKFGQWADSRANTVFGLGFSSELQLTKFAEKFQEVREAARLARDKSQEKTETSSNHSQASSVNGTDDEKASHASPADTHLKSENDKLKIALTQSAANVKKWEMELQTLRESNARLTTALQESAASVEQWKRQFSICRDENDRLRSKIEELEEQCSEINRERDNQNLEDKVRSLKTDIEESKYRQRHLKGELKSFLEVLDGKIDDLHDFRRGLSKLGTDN

[4] = target: T4, GST-CPDΔ191–230 (Cupidin with a deletion of aa 191–230) (mouse) (UniProt Q9QWW1); assay: as above
T4 sequence: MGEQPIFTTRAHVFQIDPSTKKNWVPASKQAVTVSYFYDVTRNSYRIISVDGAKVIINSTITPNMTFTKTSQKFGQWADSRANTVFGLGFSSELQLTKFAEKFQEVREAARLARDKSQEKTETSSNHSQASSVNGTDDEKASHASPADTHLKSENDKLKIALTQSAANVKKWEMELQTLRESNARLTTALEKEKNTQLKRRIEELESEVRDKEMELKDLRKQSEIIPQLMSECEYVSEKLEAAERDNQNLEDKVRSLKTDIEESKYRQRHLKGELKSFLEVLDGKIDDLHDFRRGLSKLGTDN

[5] = target: T5, GST-CPD 231–283 (mouse) (UniProt Q9QWW1); assay: as above
T5 sequence: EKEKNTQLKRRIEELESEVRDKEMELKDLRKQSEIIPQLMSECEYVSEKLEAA

[6] = target: T6, GST-CPDΔ191–283 (Cupidin with a deletion of aa 191–283) (mouse) (UniProt Q9QWW1); assay: as above
T6 sequence: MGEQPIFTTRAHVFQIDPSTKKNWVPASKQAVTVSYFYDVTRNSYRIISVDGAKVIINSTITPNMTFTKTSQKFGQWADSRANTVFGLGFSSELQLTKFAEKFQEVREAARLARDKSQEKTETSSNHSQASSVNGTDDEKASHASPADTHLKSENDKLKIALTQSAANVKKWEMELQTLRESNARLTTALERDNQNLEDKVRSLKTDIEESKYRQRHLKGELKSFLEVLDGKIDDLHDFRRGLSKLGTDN

[7] = target: T7, GST-CPD 191–283 (mouse) (UniProt Q9QWW1); assay: as above
T7 sequence: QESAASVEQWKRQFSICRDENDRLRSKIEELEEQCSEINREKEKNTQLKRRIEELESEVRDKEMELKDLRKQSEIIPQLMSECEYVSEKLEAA

[8] = target: T8, GST-CPD 191–343 (mouse) (UniProt Q9QWW1); assay: as above
T8 sequence: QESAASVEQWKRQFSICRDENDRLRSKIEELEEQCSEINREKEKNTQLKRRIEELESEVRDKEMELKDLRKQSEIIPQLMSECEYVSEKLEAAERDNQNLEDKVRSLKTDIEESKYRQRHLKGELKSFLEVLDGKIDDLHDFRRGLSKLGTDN

[9] = target: T9, GST-CPD 231–343 (mouse) (UniProt Q9QWW1); assay: as above
T9 sequence: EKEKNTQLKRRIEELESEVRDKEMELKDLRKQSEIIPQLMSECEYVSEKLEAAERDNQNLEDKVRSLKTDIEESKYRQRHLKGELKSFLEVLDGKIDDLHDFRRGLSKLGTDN

[10] = target: T1, GST-CPD C (C-terminal aa 111–343 of Cupidin) (mouse); assay: as above
[11] = target: T10, GST-CPD 191–230 (mouse) (UniProt Q9QWW1); assay: as above
T10 sequence: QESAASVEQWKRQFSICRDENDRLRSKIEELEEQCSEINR

[12] = target: T11, GST-CPD 284–343 (mouse) (UniProt Q9QWW1); assay: as above
T11 sequence: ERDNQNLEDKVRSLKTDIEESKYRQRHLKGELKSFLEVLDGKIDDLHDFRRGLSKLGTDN

[13] = target: T12, GST-fused Cupidinα/Homer2a (GST-CPD) (mouse) (UniProt Q9QWW1); assay: as above
T12 sequence: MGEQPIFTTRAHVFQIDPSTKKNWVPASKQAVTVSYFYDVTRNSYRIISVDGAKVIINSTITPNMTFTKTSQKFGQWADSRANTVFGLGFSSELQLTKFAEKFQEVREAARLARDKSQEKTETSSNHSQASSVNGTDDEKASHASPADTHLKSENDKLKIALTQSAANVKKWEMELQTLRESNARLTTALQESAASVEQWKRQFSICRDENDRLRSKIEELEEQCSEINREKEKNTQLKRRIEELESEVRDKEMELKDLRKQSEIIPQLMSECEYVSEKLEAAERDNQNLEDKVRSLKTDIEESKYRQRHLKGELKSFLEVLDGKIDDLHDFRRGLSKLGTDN

[14] = target: T13, GST-CPD 151–343 (mouse) (UniProt Q9QWW1); assay: as above
T13 sequence: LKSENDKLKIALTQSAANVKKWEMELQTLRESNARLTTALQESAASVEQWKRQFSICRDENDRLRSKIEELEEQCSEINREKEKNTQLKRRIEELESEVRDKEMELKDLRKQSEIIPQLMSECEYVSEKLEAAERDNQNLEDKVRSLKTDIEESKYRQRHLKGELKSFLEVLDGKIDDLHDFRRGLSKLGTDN

[15] = target: T14, GST-fused mouse Drebrin A C-terminal region (Drebrin-C WT, aa 579-706) (mouse) (UniProt Q9QXS6); assay: far-Western, overlay or dot blot; GST-Drebrin-C WT or mutant electrophoresed and transferred to nitrocellulose, overlaid with GST-CPD protein extracts; detected with anti-Cupidin (CPD C) antibody
T14 sequence: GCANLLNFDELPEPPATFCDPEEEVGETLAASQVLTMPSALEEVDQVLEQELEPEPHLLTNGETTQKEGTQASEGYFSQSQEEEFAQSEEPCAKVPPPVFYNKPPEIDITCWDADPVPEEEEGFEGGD

[16] = target: T15, GST-fused mouse Drebrin A C-terminal region, double mutant (Drebrin-C mutant with P593A and P675A) (mouse) (UniProt Q9QXS6); assay: as above
T15 sequence: T14 sequence with P15A, P97A

[17] = target: Cupidin (CPD), Flag-tagged and GFP-tagged copies co-expressed in COS7 cells (mouse) (UniProt Q9QWW1); assay: co-IP; COS7 cells triple-transfected with Flag-tagged and GFP-tagged copies and myc-Cdc42V12 or myc-Cdc42N17; 1% Triton X-100 lysate; IP with anti-Flag antibody, blot with anti-CPD antibody

“GST-fused Cdc42 small GTPase (from UniProt P60953 1-191) (enzyme)” was tested, and the binding [1] was “no binding”, the binding [2] was “no binding” and the binding [3] was “no binding”. For the same molecule, the binding [4] was “binds”, the binding [5] was “no binding” and the binding [6] was “no binding”. For the same molecule, the binding [7] was “binds”, the binding [8] was “binds” and the binding [9] was “binds weakly”. The binding [10] was “binds”, the binding [11] was “no binding” and the binding [12] was “no binding”. For the same molecule, the binding [13] was “binds” and the binding [14] was “binds”.

B1: GST-fused Cupidinα/Homer2a (GST-CPD) (protein, UniProt Q9QWW1-2 1-343)
chain: T12 sequence
For B1, the binding [15] was “binds” and the binding [16] was “no binding”.

B2: Cupidin (CPD), Flag-tagged and GFP-tagged copies co-expressed in COS7 cells (protein, UniProt Q9QWW1-2 1-343)
chain: T12 sequence
With B2 the binding [17] was “binds”.
